Results on 69 compounds are retold here after patent publication US9493440B2, “Compounds inhibiting leucine-rich repeat kinase enzyme activity” (Merck Sharp & Dohme Corp., priority 2013, dated 2016).

Molecules are shown by their SMILES.

For this assay, the target named is LRRK2(G2019S mutation, GST-LRRK2(amino acids 970-2527)) (Homo sapiens (Human), UniProt Q5S007, G2019S). The experiment in a line: LRRK2 Km ATP LanthaScreen Assay. The note with it: read-out: LRRK2 IC50; Km ATP LanthaScreen Assay, mean IC50.

Turning to `COCC(C)N1CCN(c2cc(-c3n[nH]c4ccc(OC5(C)CC5)cc34)ncn2)CC1` (stereo not drawn) [Example 121], the IC50 worked out at 1.1 nM. Take `CC(N1CCN(c2cc(-c3n[nH]c4ccc(OC5(C)CC5)cc34)ncn2)CC1)C1(C)CC1` (stereo not drawn) [Example 122]: the IC50 is 2.8 nM. Next, `CC(C1CCC1)N1CCN(c2cc(-c3n[nH]c4ccc(OC5(C)CC5)cc34)ncn2)CC1` (stereo not drawn) [Example 123]: 1.1 nM. The value for `CC(C(F)F)N1CCN(c2cc(-c3n[nH]c4ccc(OC5(C)CC5)cc34)ncn2)CC1` (stereo not drawn) [Example 124] was 0.9 nM; that for `CC(CC1CC1)N1CCN(c2cc(-c3n[nH]c4ccc(OC5(C)CC5)cc34)ncn2)CC1` (stereo not drawn) [Example 125] was 1 nM.

With `CCN1CCN(c2cc(-c3n[nH]c4ccc(OC5(C)CC5)cc34)ncn2)CC1` [Example 126], the IC50 stood at 1.9 nM. Take `CC1(Oc2ccc3[nH]nc(-c4cc(N5CCN(CCC(F)(F)F)CC5)ncn4)c3c2)CC1` [Example 127]: the IC50 worked out at 1 nM.

With `C[C@H]1CN(c2cc(-c3n[nH]c4ccc(OC5(C)CC5)cc34)ncn2)CCN1Cc1ccco1` [Example 128], the IC50 stood at 0.7 nM.

For `C[C@H]1CN(c2cc(-c3n[nH]c4ccc(OC5(C)CC5)cc34)ncn2)CCN1Cc1ncco1` [Example 129], the IC50 is 0.6 nM. With `C[C@H]1CN(c2cc(-c3n[nH]c4ccc(OC5(C)CC5)cc34)ncn2)CCN1Cc1cocn1` [Example 130], the IC50 was 0.7 nM. As for `COCC(C)N1CCN(c2cc(-c3n[nH]c4ccc(OC5(C)CC5)cc34)ncn2)C[C@@H]1C` (stereo partly drawn) [Example 131], the IC50 worked out at 0.6 nM. Take `CC(CC1CC1)N1CCN(c2cc(-c3n[nH]c4ccc(OC5(C)CC5)cc34)ncn2)C[C@@H]1C` (stereo partly drawn) [Example 132]: the IC50 is 1.5 nM. In the case of `CCN1CCN(c2cc(-c3n[nH]c4ccc(OC5(C)CC5)cc34)ncn2)C[C@@H]1C` [Example 133], the IC50 is 0.6 nM. The value for `C[C@H]1CN(c2cc(-c3n[nH]c4ccc(OC5(C)CC5)cc34)ncn2)CCN1CCC(F)(F)F` [Example 134] was 0.8 nM; that for `CC(C)N1CCN(c2cc(-c3n[nH]c4ccc(OC5(C)CC5)cc34)ncn2)C[C@@H]1C` [Example 135] was 1.5 nM; that for `C[C@@H]1CN(c2cc(-c3n[nH]c4ccc(OC5(C)CC5)cc34)ncn2)CCN1Cc1cocn1` [Example 136] was 0.7 nM. Next, `C[C@@H]1CN(c2cc(-c3n[nH]c4ccc(OC5(C)CC5)cc34)ncn2)CCN1CC1CC1` [Example 137]: 1.7 nM; `COCCN1CCN(c2cc(-c3n[nH]c4ccc(OC5(C)CC5)cc34)ncn2)C[C@H]1C` [Example 138]: 2.3 nM; `COCC(C)N1CCN(c2cc(-c3n[nH]c4ccc(OC5(C)CC5)cc34)ncn2)C[C@H]1C` (stereo partly drawn) [Example 139]: 0.6 nM. Next, `CC(C(F)F)N1CCN(c2cc(-c3n[nH]c4ccc(OC5(C)CC5)cc34)ncn2)C[C@H]1C` (stereo partly drawn) [Example 140]: 1.8 nM.

In the case of `CC(CC1CC1)N1CCN(c2cc(-c3n[nH]c4ccc(OC5(C)CC5)cc34)ncn2)C[C@H]1C` (stereo partly drawn) [Example 141], the IC50 turned out to be 2.5 nM. `CCN1CCN(c2cc(-c3n[nH]c4ccc(OC5(C)CC5)cc34)ncn2)C[C@H]1C` [Example 142]: the IC50 came out at 0.8 nM. For `C[C@@H]1CN(c2cc(-c3n[nH]c4ccc(OC5(C)CC5)cc34)ncn2)CCN1CCC(F)(F)F` [Example 143], the IC50 was 0.9 nM. Regarding `CC(C)N1CCN(c2cc(-c3n[nH]c4ccc(OC5(C)CC5)cc34)ncn2)C[C@H]1C` [Example 144], the IC50 amounted to 0.8 nM. The value for `CC1(Oc2ccc3[nH]nc(-c4cc(N5CCN(c6ncns6)CC5)ncn4)c3c2)CC1` [Example 145] was 1.5 nM; that for `CC1(Oc2ccc3[nH]nc(-c4cc(N5CCN(c6cnc(C#N)cn6)CC5)ncn4)c3c2)CC1` [Example 146] was 1.8 nM; that for `CC1(Oc2ccc3[nH]nc(-c4cc(N5CCN(c6cc(C(C)(C)O)ccn6)CC5)ncn4)c3c2)CC1` [Example 147] was 1.5 nM.

In the case of `Cc1cnc(N2CCN(c3cc(-c4n[nH]c5ccc(OC6(C)CC6)cc45)ncn3)CC2)nc1` [Example 148], the IC50 was 1.9 nM. For the compound `CC1(Oc2cc3c(-c4cc(N5CCOCC5)ncn4)n[nH]c3cc2F)CC1` [Example 149], the IC50 is 0.71 nM. As for `C[C@@H]1CN(c2cc(-c3n[nH]c4cc(F)c(OC5(C)CC5)cc34)ncn2)C[C@H](C)O1` [Example 150], the 50% inhibitory concentration (IC50) was found to be 0.79 nM. On to `C[C@@H]1CN(c2cc(-c3n[nH]c4cc(F)c(OC5(C)CC5)cc34)ncn2)CCO1` [Example 151], for which the IC50 is under 0.6 nM.

On to `C[C@H]1CN(c2cc(-c3n[nH]c4cc(F)c(OC5(C)CC5)cc34)ncn2)CCO1` [Example 152], for which the IC50 was found to be 1.33 nM.

Consider `CC1(Oc2cc3c(-c4cc(N5CC6CCC(C5)O6)ncn4)n[nH]c3cc2F)CC1` [Example 154], for which the IC50 was determined as 1.93 nM. Take `CC1(Oc2cc3c(-c4cc(N5CCN(S(C)(=O)=O)CC5)ncn4)n[nH]c3cc2F)CC1` [Example 155]: the IC50 was under 0.6 nM. `CN1CCN(c2cc(-c3n[nH]c4cc(F)c(OC5(C)CC5)cc34)ncn2)CC1=O` [Example 156]: the IC50 is under 0.6 nM. As to `C[C@H]1[C@H](O)[C@@H](O)CN1c1cc(-c2n[nH]c3cc(F)c(OC4(C)CC4)cc23)ncn1` [Example 157], the IC50 was determined as 1.31 nM. Next, `CCCN1CCN(c2cc(-c3n[nH]c4cc(F)c(OC5(C)CC5)cc34)ncn2)CC1` [Example 158]: 1.03 nM; `CC1(Oc2cc3c(-c4cc(N5CCN(CCF)CC5)ncn4)n[nH]c3cc2F)CC1` [Example 159]: 0.67 nM. The value for `COCCN1CCN(c2cc(-c3n[nH]c4cc(F)c(OC5(C)CC5)cc34)ncn2)CC1` [Example 160] was under 0.52 nM. The value for `c1nc(-c2n[nH]c3ccc(O[C@@H]4CCOC4)cc23)cc(N2CCOCC2)n1` [Example 161] was 12.6 nM. For the compound `C[C@@H]1CN(c2cc(-c3n[nH]c4ccc(O[C@@H]5CCOC5)cc34)ncn2)C[C@H](C)O1` [Example 162], the IC50 amounted to 12 nM. On to `c1nc(-c2n[nH]c3ccc(O[C@H]4CCOC4)cc23)cc(N2CCOCC2)n1` [Example 163], for which the IC50 amounted to 12.1 nM. Next, `C[C@@H]1CN(c2cc(-c3n[nH]c4ccc(O[C@H]5CCOC5)cc34)ncn2)C[C@H](C)O1` [Example 164]: 6.86 nM; `CC1(Oc2cc3c(-c4cc(N5CCn6ncnc6C5)ncn4)n[nH]c3cc2F)CC1` [Example 165]: 1.5 nM. Next, `CC1(Oc2cc3c(-c4cc(N5CCN(C6CCS(=O)(=O)C6)CC5)ncn4)n[nH]c3cc2F)CC1` (stereo not drawn) [Example 166]: 0.8 nM. On to `CC1(Oc2cc3c(-c4cc(N5CC[C@H](CO)C5)ncn4)n[nH]c3cc2F)CC1` [Example 167], for which the IC50 was determined as 1.1 nM. Regarding `CC1(Oc2cc3c(-c4cc(N5CCOC(C(F)(F)F)C5)ncn4)n[nH]c3cc2F)CC1` (stereo not drawn) [Example 168], the IC50 stood at 1.9 nM.

On to `CC1(Oc2cc3c(-c4cc(N5CC[C@@H](CO)C5)ncn4)n[nH]c3cc2F)CC1` [Example 169], for which the IC50 is 1.1 nM. With `CC1(Oc2cc3c(-c4cc(N5CC[S+]([O-])CC5)ncn4)n[nH]c3cc2F)CC1` [Example 170], the IC50 is 0.6 nM. Next, `COCC1CN(c2cc(-c3n[nH]c4cc(F)c(OC5(C)CC5)cc34)ncn2)CCO1` (stereo not drawn) [Example 171]: 1.6 nM; `CC1(Oc2cc3c(-c4cc(N5CCC(F)(F)C5)ncn4)n[nH]c3cc2F)CC1` [Example 172]: 0.9 nM. `Cc1nc2c(o1)CCN(c1cc(-c3n[nH]c4cc(F)c(OC5(C)CC5)cc34)ncn1)C2` [Example 173]: the IC50 came to 2.1 nM. Next, `Cc1nonc1N1CCN(c2cc(-c3n[nH]c4cc(F)c(OC5(C)CC5)cc34)ncn2)CC1` [Example 174]: 0.6 nM; `COc1ccnc(N2CCN(c3cc(-c4n[nH]c5cc(F)c(OC6(C)CC6)cc45)ncn3)CC2)c1` [Example 175]: 1.9 nM; `CC1(Oc2cc3c(-c4cc(N5CCN(CC6CCCO6)CC5)ncn4)n[nH]c3cc2F)CC1` (stereo not drawn) [Example 176]: 0.7 nM. Take `Cn1cc(N2CCN(c3cc(-c4n[nH]c5cc(F)c(OC6(C)CC6)cc45)ncn3)CC2)cn1` [Example 177]: the IC50 came to 1.9 nM. On to `Cc1cnc(C)c(N2CCN(c3cc(-c4n[nH]c5cc(F)c(OC6(C)CC6)cc45)ncn3)CC2)n1` [Example 178], for which the IC50 was found to be 1.2 nM. Next, `CC1(Oc2cc3c(-c4cc(N5CCN(C(=O)CO)CC5)ncn4)n[nH]c3cc2F)CC1` [Example 179]: 1.6 nM. The value for `CC1(Oc2cc3c(-c4cc(N5CCN(c6nncs6)CC5)ncn4)n[nH]c3cc2F)CC1` [Example 180] was 0.7 nM; that for `CC1(Oc2cc3c(-c4cc(N5CCN(c6ccncn6)CC5)ncn4)n[nH]c3cc2F)CC1` [Example 181] was 3 nM; that for `CC1(Oc2cc3c(-c4cc(N5CCN(CCCO)CC5)ncn4)n[nH]c3cc2F)CC1` [Example 182] was 1.6 nM. Next, `CN(C)[C@H]1CCN(c2cc(-c3n[nH]c4cc(F)c(OC5(C)CC5)cc34)ncn2)C1` [Example 183]: 2 nM. Turning to `CCOC(=O)N1CCN(c2cc(-c3n[nH]c4cc(F)c(OC5(C)CC5)cc34)ncn2)CC1` [Example 184], the IC50 stood at 3.9 nM. Regarding `CC1(Oc2cc3c(-c4cc(N5CCC(F)(CO)CC5)ncn4)n[nH]c3cc2F)CC1` [Example 185], the IC50 worked out at 2.7 nM. The value for `CC1(Oc2cc3c(-c4cc(N5CCS(=O)(=O)CC5)ncn4)n[nH]c3cc2F)CC1` [Example 186] was 0.6 nM; that for `CO[C@H]1CN(c2cc(-c3n[nH]c4cc(F)c(OC5(C)CC5)cc34)ncn2)C[C@@H]1O` [Example 187] was 1.3 nM. The value for `CC1(Oc2cc3c(-c4cc(N5CCc6nccnc6C5)ncn4)n[nH]c3cc2F)CC1` [Example 188] was 1.4 nM.

With `CC1(Oc2cc3c(-c4cc(N5CCC(F)(C#N)CC5)ncn4)n[nH]c3cc2F)CC1` [Example 189], the IC50 stood at 1.1 nM.

Regarding `CC1(C)CN(c2cc(-c3n[nH]c4cc(F)c(OC5(C)CC5)cc34)ncn2)CCO1` [Example 190], the IC50 was 1.5 nM.
